This is an account of results in publication PMC4336329 (PLoS ONE, 2015).

Each structure is given as a SMILES string. In all, about 310,000 compounds went through this assay and about 2,200 (0.71%) showed an effect of 50% or more. The effect is printed as a negative number. The list shows a part of the results.

Sequence of human ether-à-go-go-related gene (hERG) potassium channel (Q12809 whole entry, looked up): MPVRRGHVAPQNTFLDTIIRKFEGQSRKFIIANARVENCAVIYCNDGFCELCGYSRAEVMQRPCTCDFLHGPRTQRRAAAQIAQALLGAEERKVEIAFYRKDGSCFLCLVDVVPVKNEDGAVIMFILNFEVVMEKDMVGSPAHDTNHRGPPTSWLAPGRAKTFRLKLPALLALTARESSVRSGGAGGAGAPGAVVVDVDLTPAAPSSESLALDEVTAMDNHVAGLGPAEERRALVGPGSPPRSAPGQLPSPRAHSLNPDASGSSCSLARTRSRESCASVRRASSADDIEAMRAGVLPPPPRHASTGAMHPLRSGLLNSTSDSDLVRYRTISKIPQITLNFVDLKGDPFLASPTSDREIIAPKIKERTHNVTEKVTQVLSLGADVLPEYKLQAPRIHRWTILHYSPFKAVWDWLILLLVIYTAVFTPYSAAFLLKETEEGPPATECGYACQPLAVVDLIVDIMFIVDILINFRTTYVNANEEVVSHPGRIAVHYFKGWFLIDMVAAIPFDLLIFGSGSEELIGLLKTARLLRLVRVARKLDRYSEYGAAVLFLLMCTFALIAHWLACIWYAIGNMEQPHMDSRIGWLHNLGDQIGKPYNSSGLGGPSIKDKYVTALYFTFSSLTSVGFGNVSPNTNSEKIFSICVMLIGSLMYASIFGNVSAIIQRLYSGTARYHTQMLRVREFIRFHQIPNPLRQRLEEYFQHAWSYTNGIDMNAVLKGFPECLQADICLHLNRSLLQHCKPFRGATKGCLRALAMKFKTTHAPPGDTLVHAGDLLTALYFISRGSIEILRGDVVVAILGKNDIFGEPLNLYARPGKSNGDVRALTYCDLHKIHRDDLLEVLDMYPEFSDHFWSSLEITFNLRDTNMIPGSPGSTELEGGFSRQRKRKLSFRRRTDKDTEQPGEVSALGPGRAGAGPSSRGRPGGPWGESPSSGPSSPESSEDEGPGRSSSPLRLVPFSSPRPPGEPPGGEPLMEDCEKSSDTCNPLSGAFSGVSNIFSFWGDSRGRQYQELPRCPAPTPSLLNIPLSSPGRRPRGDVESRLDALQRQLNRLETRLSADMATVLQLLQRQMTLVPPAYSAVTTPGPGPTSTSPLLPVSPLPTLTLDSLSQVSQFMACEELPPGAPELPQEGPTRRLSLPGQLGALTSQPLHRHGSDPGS

This assay concerns the target human ether-à-go-go-related gene (hERG) potassium channel (human, UniProt Q12809). The assay can be described thus: primary screen, population patch clamp on CHO cells stably expressing hERG.
As for `COc1cccc(NC(=O)Cc2ccc3ccccc3c2)c1`, the “hERG current change (%, negative = inhibition) at 1uM” value is 19.3%.

As to `COC(=O)Cc1ccc(NC(=O)c2ccc(NC(=O)c3ccco3)cc2)cc1`, the “hERG current change (%, negative = inhibition) at 1uM” value was found to be 12.9%. Turning to `CCN(CC)c1nc2c(c(=O)[nH]c(=O)n2C)n1CCCc1ccccc1`, the “hERG current change (%, negative = inhibition) at 1uM” value is 9.42%. As for `N#CCc1c(C#N)c(N)nc(N2CCN(S(=O)(=O)c3ccccc3)CC2)c1C#N`, the figure is 3.87%; as for `COc1ccc(-n2nc(C(=O)NCC(=O)N3CCC(C(N)=O)CC3)c3ccccc3c2=O)cc1OC`, 9.79%; as for `CCOC(=O)CN1C(=O)NC2NC(=O)NC21` (centres unmarked), 13.6%. The same measure for `COC(=O)c1[nH]c2cc(C)ccc2c1NC(=O)CN1CCN(C(=O)c2ccco2)CC1`: -9.79%; for `COc1cccc(CNC(=S)Nc2cc(C)cc(C)c2)c1`: 10.7%; for `COc1ccc(CNS(=O)(=O)c2ccc3c(c2)CCN3C(=O)C2CC2)cc1`: 5.86%. As for `O=[N+]([O-])c1ccccc1S(=O)(=O)c1ccccc1[N+](=O)[O-]`, the figure is 13.6%; as for `Cn1ncc(N=Cc2ccccc2O)c1C(=O)N1CCOCC1`, 7.67%; as for `FC(F)(F)c1ccccc1NC(=S)N1CCCCCC1`, 15.5%. For `O=C(CNC(=O)C1CCCC1)Nc1ccccc1Br`, the “hERG current change (%, negative = inhibition) at 1uM” value stood at 9.17%. The same measure for `Cc1cc(C(=O)NNc2cc(Cl)ccc2Cl)no1`: 10.5%. The same measure for `COc1ccc(OC)c(NC(=O)CC2SC(=Nc3ccccc3)N(CCc3ccccn3)C2=O)c1` (centres unmarked): 3.19%; for `CC(C)C(=O)NC(=S)Nc1c(Cl)ccc2nsnc12`: 4.14%; for `COc1ccccc1-c1cc(C(=O)NCCN2CCOCC2)no1`: 1.11%. The same measure for `O=C(O)c1ccc2c(=O)n3c(nc2c1)/C(=C/c1cccc(Cl)c1Cl)CCCC3`: 10.6%; for `CC(NC(=O)COc1ccccc1)C(=O)N1CCN(c2ccccc2)CC1` (centres unmarked): 11.6%.

As for `COc1ccc(CCN=C2SCC(=O)N2Cc2ccccc2)cc1OC`, the “hERG current change (%, negative = inhibition) at 1uM” value is 11.9%. The same measure for `Cc1ccc(/C=N/NC(=O)c2cccc(S(=O)(=O)Nc3ccccc3Cl)c2)s1`: -0.199%; for `COc1ccc(C2C3=C(CCCC3=O)Nc3nc(C(F)(F)F)nn32)c(OC)c1OC` (centres unmarked): -2.14%; for `CCN(CC(=O)Nc1ccc(NC(C)=O)cc1)C(=O)c1cc2ccccc2oc1=O`: 9.24%.

`CC(Oc1ccccc1)C(=O)Nc1ccc(S(=O)(=O)N2CCN(C)CC2)cc1` (centres unmarked): the “hERG current change (%, negative = inhibition) at 1uM” value amounted to 8.39%. The same measure for `CCN1C(=O)/C(=C/N2CC(C)CC(C)C2)SC1=S` (centres unmarked): -13.1%; for `O=C(Nc1ccc(O)c2c(=O)cc(-c3ccccc3Cl)oc12)c1ccccc1Cl`: 4.04%. `CCCn1c(N2CCN(C(=O)NCc3ccccc3)CC2)nc2ccccc21`: the “hERG current change (%, negative = inhibition) at 1uM” value is given as -16.9%.

As for `CCOc1ccc(C(=O)NNC(=O)CCNC(=O)c2ccco2)cc1OC`, the “hERG current change (%, negative = inhibition) at 1uM” value is given as 13.8%.

Turning to `CCCCn1c(N)c(N(CC)C(=O)c2ccc(N3CCCC3=O)cc2)c(=O)[nH]c1=O`, the “hERG current change (%, negative = inhibition) at 1uM” value is -5.13%. Consider `Cc1cc(N2C(=O)c3ccc(C(=O)Nc4ccccc4O)cc3C2=O)no1`, for which the “hERG current change (%, negative = inhibition) at 1uM” value was determined as 15.8%. On to `COc1ccc2[nH]c3c(NCCCN4CCCC4=O)ncnc3c2c1`, for which the “hERG current change (%, negative = inhibition) at 1uM” value was determined as 9.41%. As for `O=S(=O)(NC(=NC1CCCCC1)c1ccccc1)c1ccc(F)cc1`, the figure is -1.84%; as for `COc1cccc(OCC(=O)NC2CCCCCC2)c1`, 6.15%. As for `Cc1cnc(C(=O)Nc2cc(F)ccc2C)cn1`, the figure is 20.6%; as for `O=C(COC(=O)Cc1c(Cl)cccc1Cl)Nc1ccc(OC(F)(F)F)cc1`, 10.2%; as for `CC1CC(=O)N(CC(=O)NCc2ccc3c(c2)OCO3)c2ccccc2S1` (centres unmarked), 8.15%. The same measure for `CCc1nnc(NS(=O)(=O)c2ccc(N/C=C\C(=O)c3cccc(OC)c3)cc2)s1`: 22.5%; for `Cc1cc(Oc2ccc(-c3nnc(-c4ccccc4)o3)cc2[N+](=O)[O-])ccc1Cl`: 12.5%. As for `Cc1c(NC(=O)C2CCN(S(=O)(=O)c3ccc(Cl)cc3)CC2)c(=O)n(-c2ccccc2)n1C`, the “hERG current change (%, negative = inhibition) at 1uM” value came to 17.1%. The same measure for `CC1(C)CC(=O)C=C(Nc2ccccn2)C1`: 0.961%. As for `CCSc1ccc(/C(N)=N/OC(=O)c2cccs2)cn1`, the figure is 8.95%; as for `O=C(c1ccc(Br)s1)N1CCc2ccccc2C1`, 1.86%.

As to `O=C1CC(N2CCN(Cc3ccccc3)CC2)C(=O)N1c1ccccc1` (centres unmarked), the “hERG current change (%, negative = inhibition) at 1uM” value was 9.52%.

As to `CCOC(=O)[C@H]1[C@H]2COc3cc(OC)ccc3[C@@H]2N2C(=O)CN(Cc3ccccc3)C(=O)[C@@]12C`, the “hERG current change (%, negative = inhibition) at 1uM” value was determined as 19.6%.
